Reference: patent publication US20250236654A1, “C-TYPE NATRIURETIC PEPTIDE ENGRAFTED ANTIBODIES” (Bayer Aktiengesellschaft, priority 2018, published 2025)

Tests used:
rat ANP receptor (NPR-A) = target: T1, rat ANP receptor (NPR-A) (Rattus norvegicus, UniProt P18910); assay: Fluorescence-based rat ANP receptor (NPR-A) GCaMP6 reporter cell line; conditions: tested up to the max. concentration of 460 nM
T1 construct: expressed in transfected cells; host or cells: CHO cell line stably expressing GCaMP6, co-transfected with CNGA2 and rat NPR-A
T1 sequence (P18910 29-1057): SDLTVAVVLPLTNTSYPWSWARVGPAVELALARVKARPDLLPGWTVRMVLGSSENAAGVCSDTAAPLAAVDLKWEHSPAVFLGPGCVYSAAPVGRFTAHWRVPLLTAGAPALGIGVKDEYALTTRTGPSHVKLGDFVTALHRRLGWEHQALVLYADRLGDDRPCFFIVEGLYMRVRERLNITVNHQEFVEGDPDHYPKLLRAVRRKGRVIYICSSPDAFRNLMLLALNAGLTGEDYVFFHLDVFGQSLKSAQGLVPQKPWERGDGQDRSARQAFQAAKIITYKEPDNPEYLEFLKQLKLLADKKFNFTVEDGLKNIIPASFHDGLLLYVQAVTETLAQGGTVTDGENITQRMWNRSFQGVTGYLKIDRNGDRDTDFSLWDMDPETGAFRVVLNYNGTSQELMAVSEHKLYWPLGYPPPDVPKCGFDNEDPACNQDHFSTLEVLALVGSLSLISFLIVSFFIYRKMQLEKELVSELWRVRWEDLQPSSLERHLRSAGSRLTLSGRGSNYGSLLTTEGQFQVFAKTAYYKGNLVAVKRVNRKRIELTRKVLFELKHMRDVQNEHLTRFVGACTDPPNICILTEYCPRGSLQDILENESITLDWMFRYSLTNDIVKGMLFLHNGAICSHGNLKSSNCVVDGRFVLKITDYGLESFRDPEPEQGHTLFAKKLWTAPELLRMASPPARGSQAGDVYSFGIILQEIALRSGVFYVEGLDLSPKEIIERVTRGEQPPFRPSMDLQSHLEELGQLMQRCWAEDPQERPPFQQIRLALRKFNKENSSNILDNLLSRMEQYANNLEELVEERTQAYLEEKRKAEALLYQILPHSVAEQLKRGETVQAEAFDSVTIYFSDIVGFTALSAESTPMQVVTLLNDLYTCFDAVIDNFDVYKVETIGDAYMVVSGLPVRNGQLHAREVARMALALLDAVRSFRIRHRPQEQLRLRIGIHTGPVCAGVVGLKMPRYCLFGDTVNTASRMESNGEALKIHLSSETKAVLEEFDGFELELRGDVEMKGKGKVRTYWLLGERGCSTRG
Procedure: IBMX (0.2 mM) was used to prevent cGMP degradation by endogenous phosphodiesterases. Fluorescence measurements (3 min, kinetic mode) were directly started upon agonist addition. Receptor ligands were added in Tyrode containing a black masking dye and 0.1% BSA. Measurements were done on a FLIPR Tetra®.

rat BNP receptor (NPR-A) = target: T2, rat BNP receptor (NPR-A) (Rattus norvegicus, UniProt P18910); assay: Fluorescence-based rat BNP receptor (NPR-A) GCaMP6 reporter cell line; conditions: tested up to the max. concentration of 460 nM
T2 construct: expressed in transfected cells; host or cells: CHO cell line stably expressing GCaMP6, co-transfected with CNGA2 and rat NPR-A
T2 sequence (P18910 29-1057): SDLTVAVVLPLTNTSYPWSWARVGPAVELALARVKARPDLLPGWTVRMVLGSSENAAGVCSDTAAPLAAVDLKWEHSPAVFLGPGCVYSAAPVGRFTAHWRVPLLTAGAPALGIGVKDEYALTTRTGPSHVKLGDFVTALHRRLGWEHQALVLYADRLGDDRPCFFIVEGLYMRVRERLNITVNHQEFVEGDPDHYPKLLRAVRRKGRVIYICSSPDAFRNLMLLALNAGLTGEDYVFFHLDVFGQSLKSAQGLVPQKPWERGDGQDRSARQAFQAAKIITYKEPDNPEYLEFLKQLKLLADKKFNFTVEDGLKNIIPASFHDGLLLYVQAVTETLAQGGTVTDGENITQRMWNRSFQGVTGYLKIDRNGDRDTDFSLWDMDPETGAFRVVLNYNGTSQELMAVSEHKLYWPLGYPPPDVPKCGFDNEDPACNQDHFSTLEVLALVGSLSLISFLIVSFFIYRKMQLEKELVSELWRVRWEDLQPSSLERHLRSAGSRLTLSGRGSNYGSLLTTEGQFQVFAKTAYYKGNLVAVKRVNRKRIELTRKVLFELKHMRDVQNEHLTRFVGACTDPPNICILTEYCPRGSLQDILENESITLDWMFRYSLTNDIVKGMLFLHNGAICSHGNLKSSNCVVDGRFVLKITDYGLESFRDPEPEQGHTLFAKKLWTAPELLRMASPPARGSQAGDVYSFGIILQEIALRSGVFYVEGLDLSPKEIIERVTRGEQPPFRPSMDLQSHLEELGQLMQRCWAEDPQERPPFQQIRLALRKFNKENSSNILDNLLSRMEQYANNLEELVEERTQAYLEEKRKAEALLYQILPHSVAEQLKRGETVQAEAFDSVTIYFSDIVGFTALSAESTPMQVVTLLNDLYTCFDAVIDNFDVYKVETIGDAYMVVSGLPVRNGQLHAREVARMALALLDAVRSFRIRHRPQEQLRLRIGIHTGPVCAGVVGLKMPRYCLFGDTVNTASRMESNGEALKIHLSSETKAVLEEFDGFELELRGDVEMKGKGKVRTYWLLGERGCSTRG
Description: Activity data of BNP engrafted antibodies in NPR-A receptor cell line A luminescence-based rat BNP receptor (NPR-A) cell line was generated as described previously (Wunder et al. (2013), Eur J Pharmacol. 698: 131). Accordingly, a fluorescence-based rat BNP receptor (NPR-A) cell line was generated by co-transfecting a CHO cell line, stably expressing the fluorescent calcium sensor protein GCaMP6, with plasmid constructs encoding CNGA2 (cGMP biosensor) and rat NPR-A.
BNP receptor GCaMP6 cells were cultured for one day on black, clear-bottom 384-well microtiter plates (2500 cells/well). After removal of the cell culture medium reporter cells were loaded for 20 min with Tyrode (130 mM NaCl, 5 mM KCl, 2 mM CaCl2, 20 mM HEPES, 1 mM MgCl2, 4.8 mM NaHCO3 at pH 7.4) containing a black masking dye at 37° C. and 5% CO2. IBMX (0.2 mM) was used to prevent cGMP degradation by endogenous phosphodiesterases.
Fluorescence measurements (3 min, kinetic mode) were directly started upon agonist addition. Receptor ligands were added in Tyrode containing a black masking dye and 0.1% BSA. Measurements were done on a FLIPR Tetra®.

B1: TPP-5657: “empty” antibody without natriuretic peptide, SEQ ID NO 65 and SEQ ID NO 66; negative control (antibody, listed as Homo sapiens)
heavy: [letters of about 100 residues left out]LTGAEYFQHWGQGTLVTVSS[letters of human IgG1 constant region left out]
light: QSVLTQPPSVSGAPGQRVTISCTGSSSNIGAGYDVHWYQQLPGTAPKLLIYGNSNRPSGVPDRFSGSKSGTSASLAITGLQAEDEADYYCQSYDSSLSGVVFGGGTKLTVLGQPKAAPSVTLFPPSSEELQANKATLVCLISDFYPGAVTVAWKADSSPVKAGVETTTPSKQSNNKYAASSYLSLTPEQWKSHRSYSCQVTHEGSTVEKTVAPTECS
B1 was tested, and the “stimulation of the NPR-A cell line” value (rat ANP receptor (NPR-A)) was “did not significantly stimulate” and the “stimulation of the NPR-A cell line” value (rat BNP receptor (NPR-A)) was “did not significantly stimulate”.
